{
  "source": "PubChem BioAssay AID1460",
  "about": "(National Center for Advancing Translational Sciences (NCATS), 2008)",
  "note": "Out of some 270,000 compounds screened, about 5,800 (2.1%) were called active. Inconclusive means that the source gave no clear call. Such entries were picked first, then a sample of the others. Calls come from the whole dose curve; as a rule, active = well fitted inhibition curve with a large enough effect; inconclusive = small, poorly fitted or top-dose-only effect; inactive = flat fitted curve, though single readings scatter. Potencies of inconclusive entries are doubtful fits and often do not repeat. % is set by controls: 0 for no effect and ±100 for the full control effect; potency is the fitted concentration of half-maximal effect; tags give direction and shape of the fitted curve.",
  "data": [
    {"biological_target": "Microtubule-associated protein tau (Homo sapiens) (UniProt P10636)", "sequence (P10636 whole entry, looked up, the tested form may be a part)": "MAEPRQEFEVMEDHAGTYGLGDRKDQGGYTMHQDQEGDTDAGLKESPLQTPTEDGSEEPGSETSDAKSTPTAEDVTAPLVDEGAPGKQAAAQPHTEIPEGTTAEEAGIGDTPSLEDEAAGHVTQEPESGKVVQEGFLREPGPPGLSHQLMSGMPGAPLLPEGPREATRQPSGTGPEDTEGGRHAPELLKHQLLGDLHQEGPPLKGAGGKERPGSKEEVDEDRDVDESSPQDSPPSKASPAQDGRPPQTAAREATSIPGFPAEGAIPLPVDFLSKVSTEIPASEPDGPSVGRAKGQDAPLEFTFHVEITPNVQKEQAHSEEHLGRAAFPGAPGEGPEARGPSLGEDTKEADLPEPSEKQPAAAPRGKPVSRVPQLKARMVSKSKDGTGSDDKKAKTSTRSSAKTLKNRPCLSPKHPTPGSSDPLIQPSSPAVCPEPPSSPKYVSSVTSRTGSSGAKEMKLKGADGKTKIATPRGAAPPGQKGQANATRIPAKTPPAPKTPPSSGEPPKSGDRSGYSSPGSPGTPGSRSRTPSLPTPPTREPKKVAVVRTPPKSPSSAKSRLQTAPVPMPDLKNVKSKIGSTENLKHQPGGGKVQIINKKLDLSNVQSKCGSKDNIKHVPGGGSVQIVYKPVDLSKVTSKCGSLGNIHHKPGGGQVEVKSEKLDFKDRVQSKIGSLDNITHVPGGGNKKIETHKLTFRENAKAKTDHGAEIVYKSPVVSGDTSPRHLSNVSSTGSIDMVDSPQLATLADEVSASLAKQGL", "test": "qHTS for Inhibitors of Tau Fibril Formation, Thioflavin T Binding; note: nearly all actives have a fitted effect of over 55% in size", "conditions": "recombinant tau K18 P301L (four-repeat tau fragment), heparin-induced fibrillization, ThT fluorescence; series mostly up to 57.4 µM; activity, negative = inhibition: at the top concentration", "in_short": "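Tau K18 P301L fragment (15 uM unlabeled plus 0.24 uM Alexa 594-labeled) in 100 mM sodium acetate pH 7 with compound, fibrillization induced by 20 uM heparin for 6 hr at 37 C. Thioflavin T (30 uM) added, fluorescence read after 1 hr (ex 450, em 510 nm).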", "values": [
      {"smiles": "N#CC1=C(N)C(C#N)(C#N)C(c2cccnc2)C2CCCC=C12", "note": "(stereo unspecified)", "Potency": "inconclusive: 35.5 µM [inhibitor, single point]"},
      {"smiles": "Cc1ccc(-c2nc3ccccc3[nH]2)s1", "activity, negative = inhibition": "inactive: -9.84%"},
      {"smiles": "O=[N+]([O-])c1cc(/C=N/n2cnnc2)ccc1N1CCCC1", "Potency": "active: 7.94 µM"},
      {"smiles": "Cc1cccc(N2C(=O)C(Oc3ccc(Cl)cc3Cl)C2C=O)c1C", "note": "(stereo unspecified)", "Potency": "inconclusive: 28.2 µM [inhibitor, single point]"},
      {"smiles": "COc1cccc(NCc2cccn2-c2nnc(N3CCC(C)CC3)s2)c1", "Potency": "inconclusive: 25.1 µM [inhibitor, single point]"},
      {"smiles": "C=C(C)CSc1nc2sc3c(c2c(=O)n1Cc1ccccc1)CC(C)(CC)OC3", "note": "(stereo unspecified)", "Potency": "inconclusive: 4.47 µM [inhibitor, single point]"},
      {"smiles": "Cc1ccc(-c2cn3cccnc3n2)cc1NC(=O)C(C)(C)Oc1ccc(Cl)cc1", "Potency": "inconclusive: 10 µM [inhibitor, partial curve]"},
      {"smiles": "COc1ccc2[nH]cc(CCN=C(NC(=O)c3ccccc3F)Nc3nc(C)cc(C)n3)c2c1", "activity, negative = inhibition": "inactive: -15.3%"},
      {"smiles": "COc1ccc(-n2c(Cc3cccn3C)nnc2SCC(=O)Nc2cccc(NC(C)=O)c2)cc1", "activity, negative = inhibition": "inactive: -15.8%"},
      {"smiles": "CCSc1nn2c(=O)c3ccccc3nc2s1", "Potency": "inconclusive: 12.6 µM [inhibitor, partial curve]"},
      {"smiles": "COc1ccccc1C1C2=C(N=C3SCC(=O)N31)c1ccccc1CC2", "note": "(stereo unspecified)", "Potency": "inconclusive: 15.8 µM [inhibitor, partial curve]"},
      {"smiles": "COc1ccc2nc(NC(=O)Cc3ccc(OC)c(S(=O)(=O)N4CCOCC4)c3)sc2c1", "activity, negative = inhibition": "inactive: -17%"},
      {"smiles": "Cc1ccc(O)c(N=Cc2sc3ccccc3c2Cl)c1", "Potency": "inconclusive: 28.2 µM [inhibitor, single point]"},
      {"smiles": "O=C(c1cc2sccc2n1Cc1ccccc1)N1CCCc2ccccc21", "activity, negative = inhibition": "inactive: -7.14%"},
      {"smiles": "COC(=O)c1ccc2c(c1)C(C)(C)C(/C=C/c1ccc(OC)c(OC)c1OC)=[N+]2C", "Potency": "inconclusive: 17.8 µM [inhibitor, partial curve]"},
      {"smiles": "COc1cc2c(cc1OC)C1=NC(=O)CN1C(SCc1ccccc1)=N2", "Potency": "inconclusive: 17.8 µM [inhibitor, partial curve]"},
      {"smiles": "Cc1cccc(N2C(=O)C(Cl)=C(N3CCOCC3)C2=O)c1", "Potency": "active: 15.8 µM"},
      {"smiles": "Cc1cc(C)cc(-n2ccnc2SCC(=O)Nc2cccc3ccccc23)c1", "Potency": "inconclusive: 44.7 µM [inhibitor, single point]"},
      {"smiles": "COc1ccc(/C=N/NC(=O)CSc2nnc(C)n2-c2ccccc2)c(OC)c1OC", "activity, negative = inhibition": "inactive: -11.5%"},
      {"smiles": "CN(C)c1ccc(/C=N/NC(=O)C2CC2c2ccccc2)cc1", "note": "(stereo unspecified)", "Potency": "inconclusive: 17.8 µM [inhibitor, partial curve]"},
      {"smiles": "COc1ccc(/C=C/C(=O)CC(O)(c2ccccc2)C(F)(F)F)cc1", "note": "(stereo unspecified)", "Potency": "inconclusive: 28.2 µM [inhibitor, single point]"},
      {"smiles": "Cn1c(=O)n(C)c2cc(/C=N/N=C3/NC(=O)C(CC(=O)O)S3)ccc21", "note": "(stereo unspecified)", "activity, negative = inhibition": "inactive: -12.8%"},
      {"smiles": "OCC1OC(C#Cc2ccccc2)C=CC1O", "note": "(stereo unspecified)", "Potency": "inconclusive: 7.94 µM [inhibitor, single point]"},
      {"smiles": "CN1CCC(CNC(=O)Nc2csc3ccccc23)CC1", "Potency": "inconclusive: 39.8 µM [inhibitor, single point]"},
      {"smiles": "O=C(NC(=S)Nc1ccc(CN2CCOCC2)cc1)c1ccc([N+](=O)[O-])cc1", "Potency": "inconclusive: 15.8 µM [inhibitor, partial curve]"},
      {"smiles": "Cc1nc2cc(-c3ccccc3)nn2c(C)c1CCC(=O)N1CCN(c2ccc(F)cc2)CC1", "Potency": "inconclusive: 15.8 µM [inhibitor, partial curve]"},
      {"smiles": "CCCCNC(=S)N(C)N=C1CCC(c2ccccc2)CC1", "note": "(stereo unspecified)", "Potency": "inconclusive: 39.8 µM [inhibitor, single point]"},
      {"smiles": "O=C(C1=C[C@H](c2csc3ccccc23)C[C@H](OCc2ccc(CO)cc2)O1)N1CCN(Cc2ccccc2)CC1", "Potency": "inconclusive: 1.12 µM [inhibitor, single point]"},
      {"smiles": "COC(=O)c1cc2oc(C)cc2n1Cc1ccccc1Cl", "Potency": "inconclusive: 25.1 µM [inhibitor, partial curve]"},
      {"smiles": "C/C=C1\\C(OC2OC(CO)C(O)C(O)C2O)OC=C(C(=O)OC)C1CC(=O)OCC1C(C)C(OC(=O)CC2C(C(=O)OC)=COC(OC3OC(CO)C(O)C(O)C3O)/C2=C\\C)CC1C(CO)CO", "note": "(stereo unspecified)", "Potency": "inconclusive: 28.2 µM [inhibitor, single point]"},
      {"smiles": "O=[N+]([O-])c1ccc(O)c(C2=NNC(c3ccccc3F)C2)c1", "note": "(stereo unspecified)", "Potency": "active: 15.8 µM"},
      {"smiles": "Cc1ccc(NC(=S)N(CCCN2CCCC2)Cc2cccn2Cc2ccc(Cl)cc2)cc1C", "Potency": "inconclusive: 28.2 µM [inhibitor, partial curve]"},
      {"smiles": "CCN(CC)c1ccc(C(=O)OCC(=O)N(C)Cc2ccccc2)cc1", "Potency": "inconclusive: 11.2 µM [inhibitor, partial curve]"},
      {"smiles": "C=CCn1c(Cc2ccc(OC)cc2)nnc1SCC(=O)c1cccc([N+](=O)[O-])c1", "Potency": "inconclusive: 17.8 µM [inhibitor, single point]"},
      {"smiles": "COCCNC(=O)CCCn1c(SCC(=O)Nc2ccc(F)cc2)nc2c(sc3ccccc32)c1=O", "Potency": "inconclusive: 39.8 µM [activator, single point]"},
      {"smiles": "COc1ccc(NC(=O)C2CCC(CNS(=O)(=O)c3cccc4nsnc34)CC2)cc1OC", "note": "(stereo unspecified)", "Potency": "inconclusive: 44.7 µM [inhibitor, single point]"},
      {"smiles": "CCOC(=O)c1c(C)[nH]c(C(=O)Nc2ccc3c(c2)OCO3)c1C", "Potency": "inconclusive: 8.91 µM [inhibitor, partial curve]"},
      {"smiles": "Cc1ccc(CN2C(=O)C(O)(c3c(C)[nH]c4ccccc34)c3ccccc32)cc1", "note": "(stereo unspecified)", "Potency": "inconclusive: 35.5 µM [inhibitor, single point]"},
      {"smiles": "Cc1ccc2nc(CN3CCN(C(=O)Nc4ccc(F)cc4)CC3)oc2c1", "activity, negative = inhibition": "inactive: -5.8%"},
      {"smiles": "Cc1ccc2cc(CCNC(=O)c3ccc4c(c3)OCO4)c(=O)[nH]c2c1C", "Potency": "inconclusive: 31.6 µM [inhibitor, single point]"},
      {"smiles": "C=CCSC1=N/C(=C\\c2ccc(C)o2)C(=O)S1", "Potency": "inconclusive: 15.8 µM [inhibitor, partial curve]"},
      {"smiles": "O=C(CSc1nnc(C2CC2)n1-c1ccccc1)Nc1ccc(N2CCOCC2)cc1", "Potency": "inconclusive: 11.2 µM [inhibitor, partial curve]"},
      {"smiles": "CCC(=O)Nc1ccc(C(=O)NNC(=O)c2ccc([N+](=O)[O-])cc2)cc1", "activity, negative = inhibition": "inactive: -14.8%"},
      {"smiles": "Cc1ccc(N2CCN(/N=C/C=C/c3ccccc3)CC2)cc1", "Potency": "inconclusive: 3.55 µM [inhibitor, full curve]"},
      {"smiles": "COc1cc([N+](=O)[O-])ccc1-c1ccc(/C=N/NC(=O)c2ccccc2O)o1", "Potency": "active: 1.58 µM"},
      {"smiles": "CO[C@H]1COC(=O)C/C=C\\[C@H](C)[C@@H](NS(=O)(=O)c2ccc(C)cc2)COC(=O)C/C=C\\[C@@H]1C", "Potency": "inconclusive: 7.08 µM [inhibitor, single point]"},
      {"smiles": "CCN(C(=O)Cn1c(C(=O)OC)cc2sc(Cl)cc21)c1cccc(C)c1", "activity, negative = inhibition": "inactive: -2.07%"},
      {"smiles": "CCc1ccc(S(=O)(=O)c2cn(CC(=O)Nc3ccc(F)c(Cl)c3)c3ccccc3c2=O)cc1", "activity, negative = inhibition": "inactive: -1.21%"},
      {"smiles": "Cc1ccccc1-c1nc(CN2CCCC(C(=O)NCc3ccc(Cl)cc3)C2)c(C)o1", "note": "(stereo unspecified)", "Potency": "inconclusive: 17.8 µM [inhibitor, single point]"},
      {"smiles": "COC(=O)c1cccc(N2C(=O)c3ccccc3S2(=O)=O)c1", "activity, negative = inhibition": "inactive: -3.77%"},
      {"smiles": "COc1ccc(N2C(=O)NC(NS(=O)(=O)c3ccc(Cl)cc3)(C(F)(F)F)C2=O)cc1", "note": "(stereo unspecified)", "Potency": "inconclusive: 39.8 µM [inhibitor, single point]"},
      {"smiles": "CCOC(=O)C1=C(C)NC2=C(C(=O)c3ccccc32)C1c1ccc(O)cc1", "note": "(stereo unspecified)", "Potency": "active: 10 µM"},
      {"smiles": "CS(=O)(=O)Nc1c(O)ccc2c1CCCC2C1=NCCN1", "note": "(stereo unspecified)", "activity, negative = inhibition": "inactive: -2.53%"},
      {"smiles": "c1ccc2c(c1)[nH]c1nc(SCCN3CCOCC3)nnc12", "activity, negative = inhibition": "inactive: -0.427%"},
      {"smiles": "COc1ccc2nc3oc(C(=O)Nc4ccc(OC)c(OC)c4)cc3cc2c1", "Potency": "inconclusive: 1.41 µM [inhibitor, full curve]"},
      {"smiles": "COc1ccc(N=c2oc3ccc(OC)cc3cc2-c2nc3ccccc3[nH]2)cc1", "Potency": "inconclusive: 7.08 µM [inhibitor, full curve, poor fit]"},
      {"smiles": "N#C/C(=C\\c1ccccc1[N+](=O)[O-])C(=O)NC1CCCCC1", "Potency": "inconclusive: 28.2 µM [inhibitor, partial curve]"},
      {"smiles": "COc1ccc(-c2nc3nc(C)cc(C)n3c2Nc2c(C)cccc2C)cc1", "Potency": "inconclusive: 28.2 µM [inhibitor, single point]"},
      {"smiles": "CCc1c(C)nc(SCC(=O)Nc2ccc3c(c2)OCCO3)[nH]c1=O", "activity, negative = inhibition": "inactive: -11%"},
      {"smiles": "CC1=C(C(=O)Nc2cccnc2)C(c2ccc(F)cc2)n2nc(-c3cccc(C)c3)nc2N1", "note": "(stereo unspecified)", "Potency": "inconclusive: 15.8 µM [inhibitor, partial curve]"},
      {"smiles": "C=CCn1c(SC)nc2sc3c(c2c1=O)CCc1ccccc1-3", "Potency": "inconclusive: 28.2 µM [inhibitor, single point]"},
      {"smiles": "O=C(CCc1ccc(S(=O)(=O)NCCc2ccccc2)cc1)Nc1ccc2c(c1)OCO2", "Potency": "inconclusive: 14.1 µM [inhibitor, partial curve, poor fit]"},
      {"smiles": "O=C1c2ccccc2C(=O)c2cc(NC(=O)C3CC3)ccc21", "Potency": "inconclusive: 14.1 µM [inhibitor, partial curve]"},
      {"smiles": "CCOC(=O)c1sc(-c2cccc(C(F)(F)F)c2)nc1O", "Potency": "inconclusive: 20 µM [inhibitor, single point]"},
      {"smiles": "CCc1ccc2oc(C(=O)NCC(c3ccc(OC)cc3)N3CCCCC3)c(C)c2c1", "note": "(stereo unspecified)", "Potency": "inconclusive: 22.4 µM [inhibitor, single point]"},
      {"smiles": "O=C(CN1CCSC1=NCc1ccccc1)c1ccc(Cl)c(Cl)c1", "activity, negative = inhibition": "inactive: 2.61%"}
    ]}
  ]
}
